# Results from PubChem BioAssay AID588855 (National Center for Advancing Translational Sciences (NCATS), 2011).
# Screen size: about 410,000 compounds; about 5,000 (1.2%) were called active. The inconclusive results got no clear call from the source; some entries with a clear call stand among them for comparison. Calls follow the shape of the dose curve; as a rule, active = well fitted inhibition curve with a large enough effect; inconclusive = small, poorly fitted or top-dose-only effect; inactive = no such curve, though single readings can be large or run the other way. Potencies of inconclusive entries are doubtful fits and often do not repeat.
# Test: qHTS for Inhibitors of TGF-b; also: nearly all actives have a fitted effect of over 65% in size
# Conditions: HepG2 CAGA-GFP TGF-b/SMAD3 reporter, GFP fluorescence, 18 h, TGF-beta stimulated, 500 pg/mL final; series mostly up to 46.1 µM
# In short: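 Inhibition was scored as loss of TGF-beta-induced (500 pg/mL final, 18 hours, 37 degrees C) GFP in HEPG2 cells carrying a CAGA-GFP reporter, in DMEM with 1% FBS. Well GFP was summed per cell; Activity was normalised to unstimulated and stimulated DMSO wells, then concentration-response fitting.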
# Potency is read from the fitted curve at half-maximal effect; tags tell the direction and shape of the fitted curve.
row,Compound,Potency
1,Cc1nc(N=C(N)N)nc2c(C)cccc12,active: 11.2 µM
2,Cc1ccc(NC(=O)C2(C)CCN2C(=O)Cc2ccc(C(C)(C)C)cc2)cc1C (configuration not stated),"inconclusive: 12.6 µM [inhibitor, partial curve]"
3,CCNc1nc(N)c(C(=O)c2ccc(Cl)s2)s1,active: 12.6 µM
4,O=C(c1c(F)c(F)c(F)c(F)c1F)N1CCN(Cc2ccc3c(c2)OCO3)CC1,inactive
5,CCCCN(CC)S(=O)(=O)c1ccc(C(=O)N(CCCN(C)C)c2nc3cc(C)cc(C)c3s2)cc1,"inconclusive: 22.4 µM [inhibitor, partial curve, poor fit]"
6,Cc1ccc(NC(=O)c2c(NC(=O)c3ccccc3Cl)sc3c2CCC3)cc1,inactive
7,COc1cccc(C(=O)/C=C/Nc2ccc(S(=O)(=O)Nc3cc(OC)nc(OC)n3)cc2)c1,"inconclusive: 35.5 µM [inhibitor, single point]"
8,O=C(CCSCc1ccc(Cl)cc1)NCc1ccc(F)cc1Cl,"inconclusive: 35.5 µM [inhibitor, single point]"
9,CS(=O)(=O)N1CCc2cc(C(=O)N3CCN(c4ccccc4F)CC3)ccc21,"inconclusive: 22.4 µM [inhibitor, single point]"
10,O=C(COc1ccc(Br)cc1CNC1CCCCC1)NCCc1ccccc1,"inconclusive: 35.5 µM [inhibitor, single point]"
11,COc1cccc2sc(N(CCCN(C)C)C(=O)c3sc4ccccc4c3Cl)nc12,"inconclusive: 15.8 µM [inhibitor, single point]"
12,CC(Sc1nnc(C2CC2)n1C1CC1)C(=O)Nc1cccc(S(=O)(=O)N(C)C)c1 (configuration not stated),inactive
13,Cc1cc(C(=O)COc2ccccc2Cl)c(C)n1C1CC1,"inconclusive: 35.5 µM [inhibitor, single point]"
14,CCn1c(CSc2nc(C)cc(C)n2)nnc1SCC(=O)N1CCCc2ccccc21,inactive
15,CCOC(=O)c1sc2ccccc2c1S(=O)(=O)N1CCN(c2cc(C)ccc2C)CC1,inactive
16,CN(C)C=Nc1c(C(=O)c2ccccc2)sc2nccc(N(C)C)c12,inactive
17,COC(=O)[C@H](CC(C)C)NC(=O)NCCCc1ccccc1,"inconclusive: 6.31 µM [inhibitor, single point]"
18,CCOC(=O)c1c(C)oc2c(CC(=O)c3ccccc3)c(Cl)c(O)c(O)c12,"inconclusive: 31.6 µM [inhibitor, single point]"
19,CCOP(=O)(OCC)c1nc(Cc2ccccc2)oc1NCc1ccccc1,inactive
20,Cc1cnc(NC(=O)c2ccc3c(c2)C(=O)N(Cc2ccco2)C3=O)s1,"inconclusive: 20 µM [inhibitor, partial curve]"
21,CC1=C(C(=O)OCc2ccc(C)cc2)C(c2cccc(F)c2F)CC(=O)N1 (configuration not stated),"inconclusive: 35.5 µM [inhibitor, single point]"
22,Cc1cc(NC(=O)CCCSc2nc(-c3ccco3)cc(C(F)(F)F)n2)n(-c2ccccc2)n1,"inconclusive: 14.1 µM [inhibitor, partial curve, poor fit]"
23,CC(C)Oc1ccc(C(=O)CCN2CCCCC2)cc1,inactive

row,Compound,Potency
1,O=C(Cc1ccccc1)NC(=S)Nc1cccc(C(F)(F)F)c1,"inconclusive: 8.91 µM [inhibitor, partial curve, poor fit]"
2,Cc1cc(C)c(S(=O)(=O)N2CCN(Cc3ccc4c(c3)OCO4)CC2)cc1C,"inconclusive: 15.8 µM [inhibitor, single point]"
3,CCOC(=O)C1CCCN(S(=O)(=O)c2ccc(Br)s2)C1 (configuration not stated),inactive
4,Cc1ccc(S[C@@H](CCN2CC[C@H](O)CCC2=O)c2ccccc2)cc1,"inconclusive: 0.631 µM [inhibitor, partial curve, poor fit]"
5,CC(=O)N1CCN(Cc2nc3cc(NC(=O)c4ccc(Cl)cc4)ccc3n2C)CC1,"inconclusive: 1.26 µM [inhibitor, full curve]"
6,CN1CCN(C(CNS(=O)(=O)c2ccc(Br)cc2)c2ccc3c(c2)OCO3)CC1 (configuration not stated),inactive
7,CC(C)=Cc1c(O)nc2ccccn2c1=O,"inconclusive: 1 µM [inhibitor, partial curve, poor fit]"
8,Cc1ccc(-c2ccc(CN3C(CC(C)C)C(=O)N(Cc4cn(CCC5OCCCO5)nn4)CCS3(=O)=O)cc2)cc1 (configuration not stated),"inconclusive: 35.5 µM [inhibitor, single point]"
9,Nc1c(Cl)cc(C2=NCCn3nc4ccccc4c32)cc1Cl,inactive
10,Cc1ccc(CN(C)C(=O)c2cccc(S(=O)(=O)N3CCc4ccccc4C3)c2)o1,"inconclusive: 14.1 µM [inhibitor, single point]"
11,COc1ccc(/C(N)=N/O)cc1O,inactive
12,CCc1ccc(S(=O)(=O)NCc2nc3cccnc3n2Cc2cccc(OC)c2)cc1,"inconclusive: 3.55 µM [inhibitor, partial curve, poor fit]"
13,CCCCCn1c(CNC(=O)c2ccccc2)nc2ccccc21,"inconclusive: 35.5 µM [inhibitor, single point]"
14,CCOc1ccc(NC(=O)Cn2c(=O)n(CCCCC(=O)NCc3ccc4c(c3)OCO4)c(=O)c3ccccc32)cc1,"inconclusive: 3.98 µM [inhibitor, single point]"
15,Nc1[nH]c(=S)[nH]c(=O)c1N=O,inactive
16,O=C(C[n+]1cc(Br)cc2ccccc21)c1ccccc1,"inconclusive: 22.4 µM [inhibitor, single point]"
17,O=C(CSc1nc(-c2ccco2)cc(C(F)(F)F)n1)N1CCN(c2ccc(Cl)cc2)CC1,"inconclusive: 0.631 µM [inhibitor, full curve, poor fit]"
18,O=C(NC1CC1)c1ccc(-c2cnc3cccnn23)cc1,inactive
19,CC(CCc1ccccc1)NC(=O)c1cccc(F)c1 (configuration not stated),active: 11.2 µM
20,COC(=O)CCC(=O)Nc1cc(S(=O)(=O)Nc2ccc(Cl)cc2)ccc1N1CCOCC1,"inconclusive: 3.16 µM [inhibitor, full curve, poor fit]"
21,CCc1ccc(C(O)(CC(C)C)C(CN2CCOCC2)c2ccccc2)cc1 (configuration not stated),"inconclusive: 20 µM [inhibitor, single point]"
22,COc1ccccc1-c1nn2c(=O)cc(CN3CCN(C(=O)/C=C/c4ccccc4)CC3)nc2s1,"inconclusive: 1.78 µM [inhibitor, full curve]"
23,CN(C)c1ccc(Nc2nc3ccccc3n3nnnc23)cc1,"inconclusive: 35.5 µM [inhibitor, single point]"

row,Compound,Potency
1,COc1ccc(Cl)cc1NC(=O)c1noc(C)c1[N+](=O)[O-],inactive
2,COc1ccc(-c2c(-c3ccccc3)c(C(=O)C(=O)NCCCN(C)C)n3ccc4cc(OC)c(OC)cc4c23)cc1OC,"inconclusive: 20 µM [inhibitor, single point]"
3,COc1ccc(N2CCN(S(=O)(=O)c3ccc(-c4cnc(C5CC5)o4)cc3)CC2)cc1,"inconclusive: 20 µM [inhibitor, partial curve, poor fit]"
4,COc1cccc(CNC(=O)CN2C(=O)N(c3cccc(Cl)c3)S(=O)(=O)c3ccccc32)c1OC,inactive
5,Cc1c(CN2CCC(CO)(CCOc3ccccc3)CC2)[nH]c2ccc(Cl)cc12,"inconclusive: 15.8 µM [inhibitor, partial curve, poor fit]"
6,CCN1CCN(c2cc(C)c3cc(NC(=S)NCCCN4CCc5ccccc5C4)ccc3n2)CC1,"inconclusive: 35.5 µM [inhibitor, single point]"
7,Cc1[nH]n(-c2ncc(-c3ccccc3)s2)c(=O)c1C(c1ccc(Br)cc1)C(C#N)C#N (configuration not stated),"inconclusive: 35.5 µM [inhibitor, single point]"
8,CCCOc1ccccc1Nc1nnc(C)c(=O)[nH]1,"inconclusive: 3.55 µM [inhibitor, single point]"
9,COc1ccc(-c2cc(C(=O)Nc3cc(OC)c(OC)c(OC)c3)no2)cc1OC,"inconclusive: 7.94 µM [inhibitor, partial curve]"
10,CC(=O)N/C(=C\c1ccccc1)C(=O)OCC(=O)Nc1ccc(C)c(S(=O)(=O)N(C)C)c1,"inconclusive: 6.31 µM [inhibitor, single point]"
11,O=C(NNC(=O)c1cc(S(=O)(=O)N2CCCCC2)ccc1Cl)c1ccccc1O,"inconclusive: 11.2 µM [inhibitor, partial curve, poor fit]"
12,Cc1ccc2onc(CC(=O)N3CCN(c4ccccc4)CC3)c2c1,inactive
13,O=C(NC(=O)N1CCN(c2ccccc2)CC1)c1ccc(Cl)cc1,"inconclusive: 7.94 µM [inhibitor, partial curve]"
14,CC(CNc1ccc(Cl)cc1)(CNc1ccc(Cl)cc1)[N+](=O)[O-],"inconclusive: 14.1 µM [inhibitor, single point]"
15,Cc1cccc(CSc2ccc(-c3cccs3)nn2)c1,"inconclusive: 1.26 µM [inhibitor, partial curve]"
16,CC1(C(=O)NC2CCN(Cc3ccccc3)CC2)CCN1Cc1ccc2ccccc2c1 (configuration not stated),"inconclusive: 12.6 µM [inhibitor, single point]"
17,O=C(N/N=C/c1cc(Br)ccc1O)c1ccncc1,"inconclusive: 7.94 µM [inhibitor, partial curve]"
18,CC1CNCCN1S(=O)(=O)c1cccc2cnccc12 (configuration not stated),inactive
19,COC(=O)CNC(c1ccccc1)c1cc(Br)ccc1NS(=O)(=O)c1ccc(C)cc1 (configuration not stated),"inconclusive: 14.1 µM [inhibitor, partial curve, poor fit]"
20,O=C1C(=O)c2c(ccc3ccccc23)-c2ccccc21,"inconclusive: 6.31 µM [inhibitor, single point]"
21,O=C(Nc1ccc(C(=O)NCc2ccccc2)cc1)C1=CSCCO1,inactive
